Results from PubChem BioAssay AID894 (National Center for Advancing Translational Sciences (NCATS), 2007).
Out of some 150,000 compounds screened, about 6,500 (4.3%) were called active. The shares of active, inactive and inconclusive entries below differ from those in the screen. Calls come from the whole dose curve; as a rule, active = well fitted inhibition curve with a large enough effect (not every such curve was filed as active); inconclusive = small, poorly fitted or top-dose-only effect, or another doubt; inactive = no such curve, though single readings can be large or run the other way. Potencies of inconclusive entries are left out as doubtful fits.

The compounds below were run against 15-hydroxyprostaglandin dehydrogenase [NAD(+)] (Homo sapiens) (UniProt P15428) (assay: qHTS Assay for Inhibitors of HPGD (15-Hydroxyprostaglandin Dehydrogenase)). Conditions: purified HPGD, NADH fluorescence kinetic, PGE2 substrate; activity change, negative = inhibition: hits give low values.
UniProt P15428, sequence (P15428 whole entry, looked up): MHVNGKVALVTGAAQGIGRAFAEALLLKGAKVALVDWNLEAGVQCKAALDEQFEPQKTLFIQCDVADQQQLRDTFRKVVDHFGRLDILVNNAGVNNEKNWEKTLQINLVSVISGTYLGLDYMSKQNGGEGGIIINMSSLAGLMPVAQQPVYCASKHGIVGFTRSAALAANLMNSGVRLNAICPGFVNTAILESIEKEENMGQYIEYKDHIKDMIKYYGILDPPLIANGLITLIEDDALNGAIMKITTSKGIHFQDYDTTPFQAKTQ
Method in brief: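 NADH formation kinetics: reaction with 30 uM PGE2 and 1 mM NAD+ (final), 20 nM enzyme, Tris-HCl pH 8 with Tween 20, after 15 min compound preincubation at room temperature. Fluorescence change, last versus first of five reads.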
% is set by controls: 0 for no effect and ±100 for the full control effect; potency is the fitted concentration of half-maximal effect; tags give direction and shape of the fitted curve.

| Structure (SMILES) | Potency | activity change, negative = inhibition |
| --- | --- | --- |
| COc1ccccc1-c1nc(-c2cccc(C)c2)no1 | inconclusive [inhibitor, partial curve] | – |
| Cc1ccc(C2(C)NC(=O)N(CC(=O)NCc3cccs3)C2=O)cc1 (stereo not given) | inconclusive [inhibitor, partial curve] | – |
| Clc1ccc(-n2ncc3c(NCCN4CCOCC4)ncnc32)cc1 | inconclusive [inhibitor, partial curve] | – |
| C=CCn1c(-c2ccc(N)cc2)nc2ccccc21 | inconclusive [inhibitor, partial curve] | – |
| CNc1oc(-c2cccs2)nc1C#N | inconclusive [inhibitor, partial curve] | – |
| Cn1c(N)c(S(=O)(=O)c2ccc(Br)cc2)c2nc3ccccc3nc21 | inconclusive [inhibitor, partial curve] | – |
| C=CCn1c(-c2cc(OC)cc(OC)c2)n[nH]c1=S | – | inactive: -28% |
| O=C(CSc1nccc(=O)[nH]1)Nc1ccc(Br)c(Cl)c1 | active: 31.6 µM | – |
| Cc1ccc(-n2ncc3c(=O)n(CC#N)cnc32)cc1 | – | inactive: -18.8% |
| CCOc1c2ccc(C(=O)NCc3cc(C(F)(F)F)cc(C(F)(F)F)c3)cc2nn1C | inconclusive [inhibitor, partial curve] | – |
| Cc1noc(C)c1COc1cccc(C(=O)NCc2cccc(Cl)c2)c1 | inconclusive [inhibitor, partial curve, poor fit] | – |
| O=C(Nc1ccccc1C(=O)N/N=C/c1ccco1)c1ccccc1 | – | inactive: -20.5% |
| CCSc1nnc(NC(=O)CC)s1 | – | inactive: -7.52% |
| COc1ccccc1NC(=O)c1ccccc1NC(=O)c1cc(Cl)ccc1NC(=O)c1ccco1 | inconclusive [inhibitor, partial curve] | – |
| CN1C2CCC1/C(=C/c1cccn1C)C(=O)/C2=C\c1cccn1C | active: 28.2 µM | – |
| C[C@@H]1C(c2ccc(F)cc2)=NN(c2ccccc2)[C@H]1C(=O)N1CCOC1=O | inconclusive [inhibitor, partial curve] | – |
| Cc1ccc(NC(=O)c2ccc(NCC3CCCO3)c([N+](=O)[O-])c2)cc1Cl (stereo not given) | active: 14.1 µM | – |
| Cc1nc2cnc(N3CCNCC3)nc2n(-c2ccccc2)c1=O | inconclusive [inhibitor, partial curve] | – |
| CCCCCOC(=O)c1c(N)n(CCOC)c2nc3ccccc3nc12 | inconclusive [inhibitor, partial curve] | – |
| CC(=O)c1ccc(NC(=O)COC(=O)CCC(=O)c2cccs2)cc1 | inconclusive [inhibitor, single point] | – |
| CCN1CCN(C(=O)c2ccc(Cn3c(=O)[nH]c4cc(OC)c(OC)cc4c3=O)cc2)CC1 | inconclusive [inhibitor, partial curve] | – |
| COc1cccc2sc(Nc3nc4ccc(NC(C)=O)cc4s3)nc12 | inconclusive [inhibitor, partial curve] | – |
| Cc1ccc(C(=O)NCc2ccccc2)cc1Br | active: 25.1 µM | – |
| C[C@H](NC(=O)OC(C)(C)C)c1nnc(SCC(=O)c2ccc(Cl)cc2)o1 | – | inactive: -6.94% |

| Structure (SMILES) | Potency | activity change, negative = inhibition |
| --- | --- | --- |
| O=C(O)c1ccc2c(c1)C(=O)N(CCC1=CCCCC1)C2=O | – | inactive: -17.5% |
| O=c1c2ccccc2c(/C=N/n2cnnc2)c(O)n1-c1ccccc1F | inconclusive [inhibitor, partial curve] | – |
| C=C(C)CSc1nnc2n(Cc3ccccc3)c(=O)c3c4c(sc3n12)CCC4 | – | inactive: -10.6% |
| CCOC(=O)N1CCN(c2ncnc3c2oc2nc(C(C)C)c4c(c23)CCC4)CC1 | inconclusive [inhibitor, partial curve] | – |
| CCOC(=O)C1C(=O)C=C(c2ccc(NS(C)(=O)=O)cc2)CC1c1ccco1 (stereo not given) | inconclusive [inhibitor, partial curve] | – |
| Cc1c(NC(=O)c2ccc(COc3ccc4ccccc4c3)o2)c(=O)n(-c2ccccc2)n1C | active: 35.5 µM | – |
| Cc1ccc(S(=O)(=O)N(C(=O)c2ccco2)c2cc3sc(=O)oc3c3ccccc23)cc1 | inconclusive [inhibitor, partial curve] | – |
| CSCC[C@H](NC(=O)CCNC(C)=O)c1nc2ccccc2[nH]1 | inconclusive [inhibitor, single point] | – |
| COc1ccc(C2C(C(=O)N3CC(C)CC(C)C3)c3ccccc3C(=O)N2C)cc1 (stereo not given) | – | inactive: -6.63% |
| CC(Nc1nc(N2CCCCC2)nc2ccccc12)c1ccccc1 (stereo not given) | inconclusive [inhibitor, partial curve] | – |
| COc1ccc(-c2ccc(-c3cc(=O)oc4cc(OC)c(OC)c(OC)c34)cc2)cc1OC | inconclusive [inhibitor, single point] | – |
| Cc1cc(C)c(N2C(=NC(=O)CCCC(=O)O)SC3CS(=O)(=O)CC32)c(C)c1 (stereo not given) | – | inactive: -7.66% |
| CCn1cc(-c2cc(C(=O)O)c3ccccc3n2)c(C)n1 | inconclusive [inhibitor, partial curve] | – |
| O=C(O)CCS(=O)(=O)c1nc(-c2cccs2)cc(C(F)(F)F)n1 | inconclusive [inhibitor, partial curve] | – |
| COC(=O)/C=C1/S/C(=N/NC(=O)c2ccccc2C)NC1=O | inconclusive [inhibitor, partial curve, poor fit] | – |
| CC/C(=N\NC(=S)Nc1cc(C)ccc1C)c1ccc(OC(F)F)cc1 | – | inactive: -8.98% |
| O=C(NC(=S)Nc1c(Cl)ccc2nsnc12)c1ccco1 | inconclusive [inhibitor, single point] | – |
| Cc1cc(C)nc(/N=c2/ssnc2Cl)c1 | active: 12.6 µM | – |
| N#CC1=C(N)N(c2ccccc2Sc2ccccc2)C(=O)C1 | – | inactive: -9.34% |
| Cc1ccc2nc(-c3ccc(NC(=O)CCS(=O)(=O)c4ccccc4)cc3)sc2c1 | inconclusive [inhibitor, partial curve] | – |
| CCC(=O)Nc1nonc1-c1nc2ccccc2n1CCC(C)C | inconclusive [inhibitor, partial curve] | – |
| O=C(O)c1ccc2c3c(ncnc13)-c1ccccc1C2=O | inconclusive [inhibitor, partial curve, poor fit] | – |
| COC(=O)C1=C(Nc2ccc(C)cc2)C=C(C)C(C(=O)OC)C1c1cccc(OC)c1 (stereo not given) | inconclusive [inhibitor, partial curve, poor fit] | – |
| CCC(C)(C)n1nnnc1CN(Cc1cc2cc(OC)c(OC)cc2[nH]c1=O)C1CCCC1 | inconclusive [inhibitor, single point] | – |

| Structure (SMILES) | Potency | activity change, negative = inhibition |
| --- | --- | --- |
| CCN(CC)c1nc(N)c2c(N)nc3c(c2c1C#N)CC(c1ccccc1)O3 (stereo not given) | inconclusive [inhibitor, partial curve] | – |
| CCn1c(CNC(=O)c2cccs2)nnc1SCC(=O)NCCc1ccccc1 | – | inactive: -16.3% |
| O=C(CSc1nnc(-c2ccco2)n1Cc1ccco1)NCc1ccccc1 | – | inactive: -21.3% |
| CCCC[C@@H]1C[C@H]1C(NC(=O)c1ccco1)c1ccccc1 (stereo not given in full) | – | inactive: -12.8% |
| Cc1cc(C)n(-c2nc(NCC(C)O)c3c4c(sc3n2)CCCC4)n1 (stereo not given) | inconclusive [inhibitor, partial curve] | – |
| C=Cc1ccccc1 | – | inactive: -4% |
| COc1ccc(S(=O)(=O)N(C)CC(=O)N2CCC(C(N)=O)CC2)cc1 | – | inactive: 2.16% |
| CCn1c(SCC(=O)c2ccc(F)cc2)nnc1-c1ccoc1C | inconclusive [inhibitor, partial curve] | – |
| CN1C[C@@H]2C(c3ccc(Cl)nc3)C3(c4cccnc4)CC2(C3)[C@H]1c1ccccc1 (stereo not given in full) | – | inactive: -11.1% |
| CCn1c(O)c(C(C#N)=C2N=c3ccccc3=N2)c2ccccc21 | – | inactive: -14% |
| Nc1c(C(=O)NCCN2CCOCC2)c2nc3ccccc3nc2n1-c1ccccc1 | inconclusive [inhibitor, partial curve] | – |
| C=C(C)COc1ccc(-c2nc(N)ncc2-c2ccc(OC)cc2)c(O)c1 | inconclusive [inhibitor, partial curve] | – |
| COc1ccc(-c2c(C)oc3c(CN4CCCCC4C)c(O)ccc3c2=O)cc1OC (stereo not given) | inconclusive [inhibitor, partial curve] | – |
| Cn1c(=O)[nH]c(=O)c2c1nc(NCCCn1ccnc1)n2Cc1ccccc1 | – | inactive: -13.1% |
| Cc1cccc(NC(=O)CSc2nnc(CNC(=O)c3ccc(S(=O)(=O)N(C)C)cc3)n2-c2ccc(F)cc2)c1 | – | inactive: -8.17% |
| C=CCOC(=O)c1c(C)nc2cc3c(cc2c1C)OCO3 | inconclusive [inhibitor, partial curve] | – |
| Cc1[nH]nc2c1C(c1ccc(F)cc1)C1=C(CC(C)(C)CC1=O)N2 (stereo not given) | inconclusive [inhibitor, single point] | – |
| Nc1ccc2[nH]ncc2c1 | inconclusive [inhibitor, partial curve] | – |
| COc1ccc(C(N)=S)c(OC)c1 | active: 39.8 µM | – |
| CCC1(CC)Cc2ccccc2-c2nc(CN3CCOCC3)[nH]c(=O)c21 | inconclusive [inhibitor, partial curve] | – |
| Cc1ccc(S(=O)(=O)Nc2ccccc2C(=O)O)c(C)c1 | inconclusive [inhibitor, partial curve] | – |
| O=C(Nc1ccc(-c2noc(CCc3ccccc3)n2)cc1)c1ccco1 | active: 25.1 µM | – |
